Some of the results follow. Values were computed here from the reads of four pooled replicates and scatter widely.

The assay has as its target T1, Pho4 (S. cerevisiae) (UniProt P07270).
T1 sequence: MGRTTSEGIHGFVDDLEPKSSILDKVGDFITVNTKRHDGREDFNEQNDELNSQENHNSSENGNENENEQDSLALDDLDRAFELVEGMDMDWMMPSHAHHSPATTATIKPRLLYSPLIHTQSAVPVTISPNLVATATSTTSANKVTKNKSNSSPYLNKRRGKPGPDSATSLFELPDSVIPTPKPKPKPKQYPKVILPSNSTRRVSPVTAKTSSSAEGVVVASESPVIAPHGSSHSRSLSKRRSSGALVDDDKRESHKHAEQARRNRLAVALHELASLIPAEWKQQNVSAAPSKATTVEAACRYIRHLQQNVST
The experiment in a line: relative binding free energy (BET-seq); higher = weaker binding. The conditions noted are these: reference: library average.
As to ATTTACACGTGCTTTT, the “relative binding free energy” value was -0.126 kJ/mol.

As to CTCAGCACGTGGGGGT, the “relative binding free energy” value was -0.418 kJ/mol.

For the sequence TTTGGCACGTGGAGTC, the “relative binding free energy” value is -0.0418 kJ/mol.

Regarding TTGTCCACGTGTGCAT, the “relative binding free energy” value came out at 0.167 kJ/mol.

GTTTTCACGTGGGAAG: the “relative binding free energy” value worked out at 1.17 kJ/mol.

For the sequence GCTGTCACGTGTAGTG, the “relative binding free energy” value was -0.167 kJ/mol.

As for AGGCTCACGTGATGTA, the “relative binding free energy” value stood at 1.42 kJ/mol.

With TTCAGCACGTGTGCTG, the “relative binding free energy” value was -0.209 kJ/mol.

As to AGCGTCACGTGGTAAT, the “relative binding free energy” value was 0.209 kJ/mol.

For the sequence ATCGTCACGTGTAAGG, the “relative binding free energy” value worked out at 0.418 kJ/mol.

In the case of TAATTCACGTGATTGT, the “relative binding free energy” value is 1.17 kJ/mol.

With GGAAACACGTGGCTTG, the “relative binding free energy” value is -0.0837 kJ/mol.

In the case of TGGAACACGTGGTGCT, the “relative binding free energy” value was -0.167 kJ/mol.

AAAGCCACGTGGGGTG: the “relative binding free energy” value was -1.13 kJ/mol.

As for TTACTCACGTGAGTAT, the “relative binding free energy” value came out at 1.59 kJ/mol.

On to TTGTGCACGTGTCTGC, for which the “relative binding free energy” value is -0.0418 kJ/mol.

As for GAGCGCACGTGTGTGA, the “relative binding free energy” value is -0.167 kJ/mol.

Turning to ATTTACACGTGTTATC, the “relative binding free energy” value amounted to 0.251 kJ/mol.

Consider TGTAGCACGTGTTGGC, for which the “relative binding free energy” value came out at 0.293 kJ/mol.

Take CGTGTCACGTGACTGG: the “relative binding free energy” value was found to be 0.209 kJ/mol.

As for GAGGACACGTGCGGGA, the “relative binding free energy” value was determined as 0.335 kJ/mol.

As to AGTTCCACGTGGTGAG, the “relative binding free energy” value turned out to be 0.46 kJ/mol.

As to CTGTTCACGTGTAATT, the “relative binding free energy” value was determined as 0.544 kJ/mol.

ATTGCCACGTGTTTGT: the “relative binding free energy” value is -0.711 kJ/mol.

Take GTATGCACGTGAGGAG: the “relative binding free energy” value came out at 1.05 kJ/mol.

Take TGTTTCACGTGGTAGA: the “relative binding free energy” value amounted to 0.795 kJ/mol.

With GTGTTCACGTGACTTA, the “relative binding free energy” value was 1.76 kJ/mol.

For GGAGGCACGTGGTGCG, the “relative binding free energy” value was -0.502 kJ/mol.

For TATGACACGTGGGATA, the “relative binding free energy” value is -0.502 kJ/mol.

For the sequence TGAGGCACGTGCGTTA, the “relative binding free energy” value is -1.05 kJ/mol.

On to GGCGTCACGTGTTTTA, for which the “relative binding free energy” value turned out to be 0.586 kJ/mol.

For the sequence CGGTGCACGTGTTTAG, the “relative binding free energy” value is -0.251 kJ/mol.

In the case of TGAGGCACGTGGGATA, the “relative binding free energy” value is -0.879 kJ/mol.

For AACTTCACGTGTGTGA, the “relative binding free energy” value is 1 kJ/mol.

Regarding TGTGTCACGTGTAGCG, the “relative binding free energy” value was 0.293 kJ/mol.

For GTGGTCACGTGGGGCT, the “relative binding free energy” value stood at 0.544 kJ/mol.

Consider TTGTTCACGTGCAATG, for which the “relative binding free energy” value was determined as 0.92 kJ/mol.

Regarding TGCGTCACGTGGCTTG, the “relative binding free energy” value is -0.251 kJ/mol.

With GTCGGCACGTGGTAGA, the “relative binding free energy” value was -0.837 kJ/mol.

Regarding GGTAGCACGTGGCGGC, the “relative binding free energy” value was -0.837 kJ/mol.

With GAACGCACGTGATTGT, the “relative binding free energy” value was 1.09 kJ/mol.

Regarding TATATCACGTGTGATG, the “relative binding free energy” value was found to be 0.669 kJ/mol.

Regarding GGGCACACGTGAGAGG, the “relative binding free energy” value was determined as 0.251 kJ/mol.

On to GATGACACGTGTATGG, for which the “relative binding free energy” value was found to be 0.795 kJ/mol.

As for AGAATCACGTGTGGGT, the “relative binding free energy” value worked out at 0.502 kJ/mol.

For ATAGGCACGTGTTGAG, the “relative binding free energy” value came out at 0.0418 kJ/mol.

GGTGGCACGTGTCGGT: the “relative binding free energy” value turned out to be 0.0837 kJ/mol.

Turning to CGTCGCACGTGAGGTG, the “relative binding free energy” value is 0.377 kJ/mol.

Take CAGAGCACGTGGGCGT: the “relative binding free energy” value is -1.13 kJ/mol.

Consider TGCTTCACGTGTTGTC, for which the “relative binding free energy” value is 1.09 kJ/mol.

With AAGTACACGTGGGGGG, the “relative binding free energy” value is -0.586 kJ/mol.

As for AGTGTCACGTGAGTAC, the “relative binding free energy” value was 0.795 kJ/mol.

In the case of TATGTCACGTGTTTAA, the “relative binding free energy” value stood at 0 kJ/mol.

In the case of TGCTGCACGTGGAAAT, the “relative binding free energy” value turned out to be 0.837 kJ/mol.

With AAGGGCACGTGGAATT, the “relative binding free energy” value was determined as 0.167 kJ/mol.

ATGTGCACGTGCTGGT: the “relative binding free energy” value was 0 kJ/mol.

Regarding TTTGACACGTGAGGCT, the “relative binding free energy” value was determined as 0.753 kJ/mol.

For TATCACACGTGTGTTT, the “relative binding free energy” value worked out at 0.418 kJ/mol.

With TTAGACACGTGGTCGC, the “relative binding free energy” value was 0.209 kJ/mol.

In the case of TGTGGCACGTGCCGCT, the “relative binding free energy” value was -0.711 kJ/mol.

For the sequence GTTGCCACGTGAGTTA, the “relative binding free energy” value was 1.17 kJ/mol.

TTTGGCACGTGAATTG: the “relative binding free energy” value was found to be 0.795 kJ/mol.

Regarding CTTTTCACGTGTAAGT, the “relative binding free energy” value was 1.42 kJ/mol.

On to ATTAGCACGTGTGCTA, for which the “relative binding free energy” value stood at 0.167 kJ/mol.

Regarding GGTCTCACGTGAGGTG, the “relative binding free energy” value is 1.09 kJ/mol.

As to AGGTTCACGTGAGTTT, the “relative binding free energy” value worked out at 1.51 kJ/mol.

TCGCGCACGTGAAGGT: the “relative binding free energy” value came to 0.544 kJ/mol.

With TTATGCACGTGTTCTC, the “relative binding free energy” value stood at 0 kJ/mol.

For the sequence GGCATCACGTGATAGG, the “relative binding free energy” value turned out to be 0.962 kJ/mol.

GTAATCACGTGGGCTT: the “relative binding free energy” value was -0.335 kJ/mol.

Turning to ATTTTCACGTGTAGTG, the “relative binding free energy” value was 0.92 kJ/mol.

On to GTTTGCACGTGCAATG, for which the “relative binding free energy” value was determined as 0.293 kJ/mol.

As for TTTCTCACGTGACGGT, the “relative binding free energy” value came out at 1.13 kJ/mol.

Consider AATAGCACGTGGTATA, for which the “relative binding free energy” value is -1.21 kJ/mol.

Regarding GTTGACACGTGGATGG, the “relative binding free energy” value was found to be 0.586 kJ/mol.

For the sequence TTATGCACGTGGAGGC, the “relative binding free energy” value is -0.0837 kJ/mol.

In the case of ACGTACACGTGGGGGG, the “relative binding free energy” value was -0.586 kJ/mol.

Take GGTCGCACGTGAATTG: the “relative binding free energy” value was found to be 0.753 kJ/mol.

Take TTCAGCACGTGTAGTG: the “relative binding free energy” value was -0.669 kJ/mol.

In the case of GCTGTCACGTGGGATC, the “relative binding free energy” value amounted to 0.628 kJ/mol.

AAGTCCACGTGTTATT: the “relative binding free energy” value was 0.879 kJ/mol.

Turning to AGGTCCACGTGAGGGT, the “relative binding free energy” value amounted to 1 kJ/mol.

Regarding TAAAACACGTGAGGGG, the “relative binding free energy” value amounted to 0.92 kJ/mol.

In the case of AGTGTCACGTGTGGGT, the “relative binding free energy” value turned out to be 0.293 kJ/mol.

As to AGGGTCACGTGGCTGT, the “relative binding free energy” value turned out to be 0.502 kJ/mol.

GTTCCCACGTGGGAGG: the “relative binding free energy” value was -0.126 kJ/mol.

Regarding CGCGTCACGTGTGATG, the “relative binding free energy” value worked out at 0.628 kJ/mol.

Take TATGACACGTGACGTG: the “relative binding free energy” value is 1 kJ/mol.

GGCTGCACGTGTCGGT: the “relative binding free energy” value came out at 0.0418 kJ/mol.

For the sequence GTGCTCACGTGGTATA, the “relative binding free energy” value came out at 0.418 kJ/mol.

Consider TGTCGCACGTGTTTTC, for which the “relative binding free energy” value stood at 0 kJ/mol.

ATTGTCACGTGACGGG: the “relative binding free energy” value turned out to be 0.544 kJ/mol.

In the case of TGTTCCACGTGTTGCT, the “relative binding free energy” value is 0.669 kJ/mol.

Regarding TCAGTCACGTGTCGGT, the “relative binding free energy” value came to 0.167 kJ/mol.

As for AGTGGCACGTGTTACT, the “relative binding free energy” value is -0.544 kJ/mol.

TAAGGCACGTGTCTTG: the “relative binding free energy” value is -0.0418 kJ/mol.

As to ATGTGCACGTGTAGGG, the “relative binding free energy” value was -0.209 kJ/mol.

For the sequence TATGGCACGTGGCTCG, the “relative binding free energy” value is -0.628 kJ/mol.

Turning to GTAAGCACGTGATGGT, the “relative binding free energy” value came to 0.628 kJ/mol.

As for GATAGCACGTGGTGTG, the “relative binding free energy” value was -0.418 kJ/mol.

On to GGAGTCACGTGTGTAT, for which the “relative binding free energy” value was determined as 0.962 kJ/mol.

Turning to GCATTCACGTGGTTTT, the “relative binding free energy” value was found to be 1 kJ/mol.

Regarding GGGTTCACGTGGCGGA, the “relative binding free energy” value was determined as 1.51 kJ/mol.

TGGGACACGTGTGTCG: the “relative binding free energy” value was determined as 0.335 kJ/mol.

Turning to TATCCCACGTGGTGGT, the “relative binding free energy” value is -0.753 kJ/mol.

For GGCAACACGTGGGGGG, the “relative binding free energy” value is -0.0418 kJ/mol.

In the case of AGGGGCACGTGTTATG, the “relative binding free energy” value is -0.795 kJ/mol.

Turning to AGTTGCACGTGTCGGG, the “relative binding free energy” value was determined as 0.0418 kJ/mol.

For the sequence GTGTTCACGTGCTTTG, the “relative binding free energy” value was determined as 0.837 kJ/mol.

With TAGTTCACGTGTTCGA, the “relative binding free energy” value was 1.13 kJ/mol.

As for GAATTCACGTGGTGAT, the “relative binding free energy” value amounted to 0.628 kJ/mol.

As for TTTGTCACGTGTCTGA, the “relative binding free energy” value was found to be 0.377 kJ/mol.

Consider GTCGTCACGTGGTTCG, for which the “relative binding free energy” value came to 0.167 kJ/mol.

Take CGGAACACGTGGAGGT: the “relative binding free energy” value is 0.251 kJ/mol.

Consider GGTTGCACGTGAGAAT, for which the “relative binding free energy” value turned out to be 1.34 kJ/mol.

Values taken from the BET-seq Pho4 binding data (Le et al. 2018).
